Test results reported in PubChem BioAssay AID1508623 (National Center for Advancing Translational Sciences (NCATS), 2021).
Screen size: about 48,000 compounds; about 450 (0.94%) were called active. About 19% were inconclusive and are not listed. The call rests on the fitted dose curve; in most records, active means well fitted inhibition curve with a large enough effect; inconclusive means small, poorly fitted or top-dose-only effect; inactive means no such curve, though single readings can be large or run the other way. The list shows a part of the results.

experiment: Primary qHTS for Identification of Small Molecule Inhibitors of Huntingtin Promoter Activity; conditions: HEK293 HTT promoter firefly luciferase reporter (activity 0% = vehicle and -100% = no light), 24 h; series mostly up to 57.5 µM; activity change, negative = inhibition: at the top concentration; further: nearly all actives have a fitted effect of over 50% in size
Procedure, shortened: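 Quantitative HTS used concentration series of up to 57.5 uM final on HEK293 luciferase reporter cells, 24 h at 37 degrees C. Readout was Dual-Glo firefly luminescence.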

Activity change, negative = inhibition, inactive:
CCNc1nc(Oc2ccc(=O)n(-c3ccccc3)n2)nc(N(C)C)n1 -0.141%
CCOc1cc(C(=O)Nc2ccc(-c3nc4cc(Cl)ccc4o3)cc2)cc(OCC)c1OCC 9.55%
CC(=O)c1cccc(-n2c(=O)c3c4c(sc3n(CC(=O)c3ccc(Cl)cc3)c2=O)CN(C(C)=O)CC4)c1 -4.08%
CC1CCCCN1C(=O)CSc1n[nH]c(-c2ccccc2)n1 (centres undefined) 41.4%
O=C(Nc1cccc(Cl)c1)c1cc(-c2ccccc2)on1 2.1%
COc1ccc(CNC(=O)CCCc2nnc3n(CCC(C)C)c(=O)c4sccc4n23)cc1 -4.22%
Cn1cc(C(=O)NCCc2ccc(Cl)cc2)c(=O)c2cc(S(=O)(=O)N3CCOCC3)ccc21 9.37% [at 11.5 µM]
O=c1[nH]c(C2CCCN(S(=O)(=O)c3ccccc3Cl)C2)nc2c1nnn2Cc1ccc(OC(F)(F)F)cc1 (centres undefined) -14.9%
Cc1ccc(CCNC(=O)C2CC(=O)N(CCc3ccccc3)C2)cc1 (centres undefined) -6.25%
Cc1ccc(C(=O)Nc2cccc(C(F)(F)F)c2)cc1Nc1nc(-c2cccnc2)nc2c1cnn2C -7.46%
CCc1nn(CCCC(=O)N2CCN(c3ccc(OC)cc3)CC2)c(=O)c2cc3occc3n12 -18%
COc1ccc(CCNC(=O)c2ccc3c(c2)c(C)c(C)n3Cc2ccccc2)c(OC)c1OC -19.7%
COc1ccc(NC(=O)C2CCC(CNS(=O)(=O)c3ccc4c(c3)C(C)(C)C(=O)N4C)CC2)cc1 (centres undefined) -7.36%
Cc1noc(-c2ccc(CSCCC(=O)O)cc2)c1NC(=O)OC(C)c1ccccc1Cl (centres undefined) -11.5%
Cc1cc(CC(=O)O)c(C)n1-c1ccc(Cl)cc1 -1.33%
O=C(COc1ccccc1)Nc1ccc2nc(SCC(=O)N3CCc4ccccc43)sc2c1 -13%
CCOc1ccc(C(=O)Nc2onc3c2CCCC3)cc1 72.9%
CCOC(=O)N1c2ccc(C(F)(F)F)cc2[C@@H](N(Cc2cc(C(F)(F)F)cc(C(F)(F)F)c2)C(=O)OC)C[C@H]1CC -31.2%
N#Cc1ccccc1Cn1c(SCC(=O)Nc2ccc(F)cc2)nc2ccccc21 -33.9%
Cn1cnc(S(=O)(=O)N2CCC(C(=O)Nc3ccc(C#N)cc3)CC2)c1 -17.4%
CC(=O)c1ccc(NC(=O)c2nc(-c3ccccc3)n(-c3ccccc3Cl)n2)cc1 -13.2%
COc1ccc(CNCCCSc2nnnn2C)c(OC)c1 -4.31%
CCc1nnc(SCc2ccc(F)cc2Cl)c2cc3sc(C)cc3n12 2.91%
COc1cccc(CNC(=O)CCn2c(=O)c3cccn3c3cccnc32)c1OC 2.92%
CCOc1ccc(CNC(=O)C2CCN(S(=O)(=O)c3ccc4c(ccn4C)c3)CC2)cc1 0%
Cc1nn(CC(=O)NCC(C)c2ccccc2)c(=O)c2cc3ccccc3n12 (centres undefined) -4.54%
Cc1ccc(-c2noc(-c3ccc(N4CCCCC4C)c([N+](=O)[O-])c3)n2)cc1 (centres undefined) -19.9%
CCCCn1c(=O)c2oc3ccccc3c2n(Cc2cccc(C)c2)c1=O 4.42%
Cc1c(C(=O)Nc2ccc(-c3nc4cc(Cl)ccc4o3)cc2)oc2ccccc12 -7.55%
Cc1ccccc1NC(=O)CSc1cn(CC(=O)N2CCCC2)c2ccccc12 -34.5%
Cc1c(Cl)cccc1NC(=O)c1cc2sccc2n1Cc1ccc(F)cc1 -30.1%
COc1ccc(N(C)C(=O)c2nc(-c3cccc(F)c3)n3c2CCCCC3)c(OC)c1 -17%
CC1(C)O[C@@H]2C[C@@H]3[C@H]4C[C@@H](F)C5=CC(=O)C=C[C@]5(C)[C@@]4(F)[C@@H](O)C[C@]3(C)[C@]2(C(=O)CO)O1 -3.85%
Cc1ccc(-c2cc(-c3coc4ccccc4c3=O)c3c(n2)-c2ccccc2OC3)cc1 -5.86%
Cc1c(-c2cccc(NC(=O)Nc3ccccc3)c2)nc2ncccn12 9.73%
Cc1ccc(S(=O)(=O)N2CCc3cc(C(=O)NCCc4ccccc4)ccc32)cc1 -20.7%
CCS(=O)(=O)N1CCC2(CC1)OC(=O)C(C)=C2C(=O)NCc1ccccc1C 0.852%
COc1cccc(Cn2c(=O)cc(C)c3c(C)nn(-c4ccc(C)cc4)c32)c1 -1.96%
COc1ccccc1N(CC(=O)NCCSCc1ccccc1)S(C)(=O)=O -8.53%
CCCCc1nn2c(=O)cc(COC(=O)c3cccc(OC)c3)nc2s1 -15.8%
COc1ccc(-c2cc(C(F)(F)F)nc(SCC(=O)NCc3ccc(OC)c(OC)c3)n2)cc1 -7.56%
CCc1nnc2c(Nc3cccc(C(C)=O)c3)nc3ccccc3n12 2.24%
COc1ccc(-c2onc(C)c2C)cc1S(=O)(=O)NCc1ccco1 -15.9%
CCc1ccc(CNC(=O)c2ccc3c(c2)nc2n3CCC(C)C2)cc1 (centres undefined) -1.71%
COc1cccc(C(=O)Nc2cccc(OCc3cc(=O)n4cc(C)ccc4n3)c2)c1 2.65%
CCCCc1nn2c(=O)cc(COC(=O)COc3ccc(C)cc3)nc2s1 -4.1%
COc1ccc(C)cc1NC(=O)CN(c1ccccc1)S(=O)(=O)N(C)C -5.05%
COc1ccc(NC(=O)CN2C(=O)COc3ccc(S(=O)(=O)Nc4ccccc4)cc32)cc1 -5.75%
CCOC(=O)CN1C(=O)c2ccccc2Sc2ncccc21 -18.9%
CCC12CN3CC(C)(CN(C1)C3c1c[nH]c3ccccc13)C2=O (centres undefined) -16%
CC1=C(C(=O)Nc2ccc(C)cc2C)C(c2ccc(O)cc2)n2nnnc2N1 (centres undefined) -12.4%
COc1ccc(/C=C\c2onc(C)c2S(=O)(=O)N2CCC(C(=O)Nc3ccc(C)cc3C)CC2)cc1 -16.9%
O=C(Nc1ccc(F)cc1Cl)n1ncc2cc(Cl)ccc21 0.476%
CCC(=O)N1CCc2cc(S(=O)(=O)NC(CC(C)C)C(=O)Nc3cc(C)ccc3OC)ccc21 (centres undefined) -16.7%
CCCOc1ccc(C(=O)Nc2cccc(NC(=O)c3cccc(Cl)c3)c2)cc1 -1.82% [at 11.5 µM]
CCS(=O)(=O)c1ncc(N(Cc2ccco2)Cc2sccc2C)c(C(=O)Nc2ccc(C)cc2C)n1 -13.9%
O=C(COc1ccccc1-c1nnc(-c2ccccc2)o1)Nc1ccc(Br)cc1F -13.6%
CCCNC(=O)CCNS(=O)(=O)c1ccc2c(c1)c(=O)n(C)c(=O)n2C -10.4%
CCC(=O)N1CCc2cc(S(=O)(=O)NCCC(=O)Nc3ccc(C)cc3)ccc21 -19.5%
Cc1cccc(NCc2nc3ccccc3n2CCOc2ccccc2C)c1 -27.3%
COc1cc(C(=O)n2nc(-c3ccco3)nc2NCc2ccc(Cl)cc2)cc(OC)c1OC 25.7%
COc1ccc(C(=O)NCC(c2ccc(N(C)C)cc2)N2CCCC2)c(OC)c1 (centres undefined) 4.05%
Cc1cccc(-c2nc(CSc3nncn4c3cc3oc(C)cc34)c(C)o2)c1 -4.55%
COc1ccccc1OCC(=O)Nc1nc2c(s1)CC(C)CC2 (centres undefined) -23.1%
Cc1ccc2nc(-c3ccc(Cl)cc3)cc(C(=O)OCC(=O)c3ccccc3)c2c1 -13.9%
CC1CCC(NC(=O)C2(C)Cc3ccccc3C(=O)N2Cc2ccc(F)cc2)CC1 (centres undefined) -25.7%
CCC(Cn1nnc2ccccc2c1=O)NC(=O)Nc1ccc(C)cc1C (centres undefined) -13.8%
CCOc1ccccc1C(=O)NCc1ccc2c(c1)CCN2C(C)=O -18.7%
Cc1ccc(S(=O)(=O)Nc2cccc(-c3ccc(N4CCCCC4)nn3)c2)s1 4.73%
Cc1cccc(NC(=O)C2CCCN(S(=O)(=O)c3cccc4nonc34)C2)c1 (centres undefined) -3.6%
CCOC(=O)C(C)Sc1nnc2ccc3ccccc3n12 (centres undefined) 31.3%
Cc1ccc(NC(=O)C(=O)NCc2ccc(Cl)cc2)cc1 -17.3% [at 11.5 µM]
COc1cc(OC)c(NC(=O)CCn2cnc3onc(-c4ccc(F)cc4)c3c2=O)cc1Cl 0.41%
CCOc1ccc(NC(=O)N(Cc2c[nH]c3ccccc23)C2CCCCC2)cc1 33.1%
Cc1oc(-c2cccc(Cl)c2)nc1CN1CCC(C(=O)NCCCN2CCN(c3cccc(Cl)c3)CC2)CC1 -11.6%
Cc1ccc(CNCc2c(C(=O)O)n(Cc3ccccc3C)c3cc(C)ccc23)cc1 -2.88%
CCC[C@@H]1C[C@@H](C(=O)N[C@@H]([C@H]2O[C@H](SC)[C@H](O)[C@@H](O)[C@H]2O)[C@@H](C)O)N(C)C1
CCCCNC(=O)c1[nH]c2ccccc2c1Sc1ccc(C)cc1 -17.1%
Cc1cc2c(=O)c(C(=O)c3ccncc3)cn(CC(=O)Nc3cccc(C)c3C)c2cc1C -17.3%
CC(NC(=O)CN(C)S(=O)(=O)c1ccc2c(c1)c(=O)n(C)c(=O)n2C)c1ccccc1 (centres undefined) -7.03%
Cc1oc(-c2ccc(C(=O)NCc3ccc(N(C)C)cc3)cc2)nc1COc1ccccc1 -20.4% [at 11.5 µM]
Cn1cc(S(=O)(=O)N2CCCCC2)cc1C(=O)N1CCN(c2ccc(F)cc2)CC1 -15.8%
Cc1cc(=O)n(CC(=O)NCCC(C)C)c2c1c(C)nn2C -25.9%
Cc1ccc2c(c1)c(=O)c(C(=O)c1ccncc1)cn2CC(=O)Nc1c(C)cccc1C -10.6%
Cc1ccc(C)c(S(=O)(=O)c2cnc(SCC(=O)Nc3ccc(F)cc3F)[nH]c2=O)c1 -1.38%
CCc1ccc(NC(=O)CSc2nccn2C2CCCC2)cc1 -14%
CCN(CC)CCNC(=O)C1CCCN(c2ncnc3onc(C)c23)C1 (centres undefined) 0.979%
Cc1ccc(C)c(-c2csc(-c3c(N)c(C(=O)c4ccc5c(c4)OCO5)n4ccccc34)n2)c1 -34.4%
COc1ccc(CCNC(=O)Cn2nc(C)n3c(cc4occc43)c2=O)cc1OC -7.5%
CCOC(=O)c1c(S(=O)(=O)N2CCCC(C(=O)N3CCN(c4ccc(F)cc4)CC3)C2)c(C)n(C)c1C (centres undefined) -13%
COc1ccc(CCNC(=O)Cn2ncc3c(C)n(Cc4ccccc4F)c(C)c3c2=O)cc1OC -17.1%
Cc1ccc2nc(N(Cc3cccnc3)C(=O)C3CCCCC3)sc2c1 -26.9%
CCn1cc(C(=O)OCC(=O)Nc2cc(Cl)ccc2OC)c(=O)c2ccc(C)nc21 -7.05%
COc1cc(CNCc2c(C(=O)O)c(C)n(Cc3cccc(Cl)c3)c2C)cc(OC)c1OC 8.91%
